Laboratory results as given in the supplement of paper PMC11417369.
The list shows a part of the results.

tested on: PfHDP1 homeodomain (GST-tagged); assay: gcPBM binding intensity (ln(normalized median fluorescence intensity)); higher = stronger DNA binding
Outline: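 Binding intensity values are the highest Masliner-normalised natural-log median intensity among replicate spots of either probe orientation. The binding step lasted 1 h in 1× PBS with 1% milk, 0.2 mg/ml BSA, 0.5% salmon testes DNA and 0.03% Triton X-100, using GST-tagged P. falciparum DNA-binding domains expressed in E. coli on an Agilent 4 × 180k array of primer-extended double-stranded 36-bp intergenic genomic probes plus negative controls. Alexa488 anti-GST antibody and a 488 nm scan detected bound protein.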

In order of falling “gcPBM binding intensity (ln)” value:
1. ATAATATCTTTATGTGTGCACATATATATATATATA  10.5
2. TAAATAATTTATAAGTGTACTATTATTGCACGAATA [XGTACX_site7715]  10.4
3. AAAATTTAATATAATGCACACATAAAAAAAAAAAAT [CACACA_site8425]  10.4
4. AAATATAATATATGCACACATACATACATATATATA [CACACA_site104]  10.3
5. AAATTAGGAAATTGCACACAAAAAAAAACATATTAT [CACACA_site4074]  9.97
6. TATAATATAATATATGCACACAAATATGTATATATG [CACACA_site8664]  9.95
7. GTATTTTTAAATGACACACACATATATATATATATA [CACACA_site1662]  9.45
8. TTTTTTTTTTTTTTTGCACACTTGATTTGAGCTTAT [CACACA_site4042]  9.45
9. AATATATTTTAATACACACACACATATATATATATA [CACACA_site5969]  9.29
10. TTTTTTTTTTTTTGTGTGCACCTTATTTTTTTGTAT [GTGCAC_site9617]  9.14
11. TTCTTTAAAATAAATTGTACTAACATATATATATAT [XGTACX_site6045]  9.11
12. CATTAGGTCTTTTGTACATGCAAGTGTGTGCGTAAA [TGCATGCA_site255]  8.98
13. TTATTAATATTGCATGCACACTATATAATAATTGAA [CACACA_site8258]  8.77
14. ATAGTAATGCATAAATATATATTATATATATATATA [XGTACX_negctrl_site576]  8.75
15. AATGCTTTTCATCAAGTGCAATATGTTAATACAAAC [GTGCAC_site9619]  8.54
16. AACTATATATAACTAGTGCAAAGACAATATTTTAAA  8.53
17. TGAATATTTATACATGCACACTAAAATAAAGAATCT [CACACA_site5351]  8.07
18. ATATGTATATAAATGTGTACTTATAAATATATATAT [XGTACX_site3250]  8.01
19. CAAACACCCAAACACACACACACATACATACATACA [CACACA_site8044]  7.82
20. AAAAATATATTATATGTACACACAAAATTAAGGGAT [CACACA_site8384]  7.47
21. AATATTATAAATGATACACACTTAAAATACACCCAC [CACACA_site5498]  7.39
22. CATAAGCACAAGCACAAGCACACATTTATATATATA [CACACA_site882]  7.39
23. TGAATATTTACTTTAGCACACAATTTGTATTTGATT [CACACA_site960]  7.26
24. ATTTTTCATATATATATATTAATATATATATATTAA [CACACA_negctrl_site1681]  7.1
25. AAAATAAAAATACACATTTTTTTTTTTTTTTTTTTT [TGCATGCA_negctrl_site515]  7.05
26. TTTTTTTTTGTTTACACACCCAAATCACATACATAT [CACACA_site4052]  7.05
27. TTTGATATAGAAAGAGCATGCAAGTTAGATAAAATA [TGCATGCA_site470]  7
28. AATAAATAGATATATACACACATATATGTGTACATA [CACACA_site7476]  6.94
29. TACAATTTAAAACACACACACAATAATACATATATA [CACACA_site1251]  6.89
30. TATTCTGTGTATAAAAGTACAAATATTTAAATGTAT [XGTACX_site8234]  6.82
31. AAAAAAAACAGACACACACACATAAATATATATAAA [CACACA_site148]  6.82
32. TTACAAAAATGTGGTTGTACACAAACAAAAAAAATA [XGTACX_site8506]  6.82
33. CAATCATGGTTTTACACACACATGCATGTGAAAATT [CACACA_site4870]  6.82
34. TATAAAAGTAGACACACACACATATAAATATAAATA [CACACA_site6567]  6.8
35. AAAACAAAATAGGGAACACACACATGTCAATATATA [CACACA_site8834]  6.79
36. TCATGTTTTACAAAAACACACAAATGAATATAAACA [CACACA_site4775]  6.78
37. CATTATTATGATAGTTGTACAATTTTTATAAAAAAT [XGTACX_site4411]  6.75
38. AATAAATAAAAATTATGTACATATATAAAAAATACA [XGTACX_site8581]  6.73
39. GGATAAAATGCTACGAGTACATAAGCATTTTTCCCT [XGTACX_site7796]  6.7
40. TATAAATAGATATATACACACATGAAAATAAATAAA [CACACA_site7228]  6.7
41. TCTTTCTCTCTTCAAAGTACATATAATATATACTTC [XGTACX_site7982]  6.69
42. TATATTATTTATATTTGTACACAGCGATATGAAATA [XGTACX_site987]  6.68
43. TCGAATTTGGAAAGAAGTACATGAAGCCAACATATG [XGTACX_site5222]  6.68
44. CAGTTAATGTTGGTACTTTATATAAAAATGATATGA [CACACA_negctrl_site1600]  6.67
45. TGGAAAAATAGGCACACACACATATATACCTATATA [CACACA_site4843]  6.65
46. TCTTTTAAAAATATAAAAAGGAATATATAAAAATGT [CACACA_negctrl_site332]  6.65
47. ATTATATATACATAATGTACATATATATATTACCTT [XGTACX_site7624]  6.63
48. ATAACAACATTTGATAAACACACAGAAGTATAAATA [CACACA_site8739]  6.63
49. GTATATATTTTGTATTCATTTGTCACATATAATAGA [CACACA_negctrl_site506]  6.61
50. ATTTACATTATATTGAATATGCCATATTATATTATT [CACACA_negctrl_site811]  6.59
51. CGCATATTTTATGTTTGTACTCATATGAATATCATA [XGTACX_site4717]  6.59
52. TATAAATAGGCATATACACACTTTTAATATTCATAA [CACACA_site6123]  6.58
53. GAATTTATTTTATTTTCACACACAAAAATAAATATC [CACACA_site8762]  6.57
54. CTATTGTTAAATATAATACACACGTTTTTAAAAATA [CACACA_site2183]  6.52
55. AATATATTCATCATATCAATATTGTCAAGCAAACGA [TGCATGCA_negctrl_site37]  6.52
56. ATAGACTTTTGTTTTGTTTTATTTTATTGTATTGTA [CACACA_negctrl_site618]  6.5
57. TCTAACATATTTTTAATACACACTTAAAAAAGTACT [CACACA_site1366]  6.49
58. CAGCTCTTAAAAATTACACACATATACGCATATATA [CACACA_site3267]  6.49
59. TTATCCATTTTAATCACACATACTTTACTTTGGAAC [CACACA_site5584]  6.48
60. TTTCAAACTGTTCTCACACACGAAATTAGAAATGAA [CACACA_site4509]  6.48
61. TTTTTTTTAAATATCACACACATATAACATATTCTA [CACACA_site7687]  6.46
62. TATATAAATATATATGTACACACATATACATGTTGA [CACACA_site9022]  6.46
63. GAAATAGAGAAACACACACACATATATTTATGTATT [CACACA_site3967]  6.45
64. TTTGAACGAAAATACTCACACATATTTATAAACATT [CACACA_site5182]  6.44
65. TATATACATAGACACCCACACACAAAAAAAAAAAAA [CACACA_site8186]  6.43
66. AAAATTTCTTTTTTTTGTACATATATAATAATATAT [XGTACX_site7107]  6.42
67. TTGTTTATTTTTTATTACTATAAAGATGTTATATAT [CACACA_negctrl_site1506]  6.42
68. ATATTATTATAAACTTCACACATTTTATGGGTTTTT [CACACA_site4631]  6.41
69. AAGAATAATAACAAATGTACTTATATAAAGTATTAT [XGTACX_site2336]  6.39
70. TATAAATAAATGCGTACACACTAATAAAAAAAAAAA [CACACA_site4630]  6.35
71. ATGATTTTTTCTGTATGTACATAAAAATAAAATTCT [XGTACX_site5698]  6.31
72. TATTAAGAAGAAAATTCACACATTTGTACCTCTCTT [CACACA_site4822]  6.29
73. TTTTTTTTTTTTTGGTTCACACTGAAAAGAGAGATA [GTGCAC_negctrl_site439]  6.29
74. AAAAAAAAAAAAAATTCACACACATATAAAAAATTA [CACACA_site8140]  6.25
75. ATAAAAATAAAAAGATGTACGTATTTTTTTTTTTTT [XGTACX_site5329]  6.22
76. TTGTATATATTAAATTGTACTTATTTTTTGTATATA [XGTACX_site3251]  6.2
77. TTTTTTTATTTTTTTATAAATGTATTTCTATTATTT [CACACA_negctrl_site1562]  6.19
78. TTTTTTTTTTTTGAGTGTACTAAAATATTACCTTTT [XGTACX_site646]  6.19
79. AAAAAAAAAAATGGTTGTACTTTTTTTATTTGGTGC [XGTACX_site4498]  6.18
80. TCTATATCAACCAGTTGTACTGAATTTACTATATTT [XGTACX_site4205]  6.18
81. TAAATTAAGAATTTTACACACATTAAATAAAAAAAA [CACACA_site3638]  6.18
82. TAATTAAATATTTTCCTACAATTAATAAGAAAAGGA [XGTACX_negctrl_site565]  6.18
83. TTTTCCTTTTTGGAATGTACACATATATATTAAATG [XGTACX_site4700]  6.18
84. GAAAATAGCTAAAATACACACAATTAAAAGTTATTA [CACACA_site7614]  6.17
85. TATAAACATATAAAAAGTACATACCAATTAATATTA [XGTACX_site967]  6.11
86. TATAAAATGACTATATATAATATTAAAAAAAAAAAA [TGCATGCA_negctrl_site387]  5.97
87. AAAATATAGTTATCAATATATAATATTTTTTTTTTA [CACACA_negctrl_site459]  5.91
88. TTCTTTAATAAAATAATCTCAAAGAAAATTTTTTCT [GTGCAC_negctrl_site589]  5.83
